Laboratory results as given in patent US20200362003A1 (Genentech, published 2020).

T1: IL-22 RA1 ECD (Homo sapiens (Human), UniProt Q8N6P7 16-228)
T1 construct: also called IL22-RA1 extracellular domain; IL-22R1
T1 sequence: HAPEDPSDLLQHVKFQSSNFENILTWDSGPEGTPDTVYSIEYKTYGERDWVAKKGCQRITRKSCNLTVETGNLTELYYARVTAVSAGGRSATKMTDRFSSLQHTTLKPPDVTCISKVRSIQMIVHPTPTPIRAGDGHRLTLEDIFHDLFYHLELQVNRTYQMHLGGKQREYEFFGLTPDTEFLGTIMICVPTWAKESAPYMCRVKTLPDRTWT

B1: Deglycosylated IL-22 Fc fusion protein Reference Standard Batch (Fc fusion)
chain: APISSHCRLDKSNFQQPYITNRTFMLAKEASLADNNTDVRLIGEKLFHGVSMSERCYLMKQVLNFTLEEVLFPQSDRFQPYMQEVVPFLARLSNRLSTCHIEGDDLHIQRNVQKLKDTVKKLGESGEIKAIGELDLLFMSLRNACIRV[human IgG4 Fc with S228P N297G (EU numbers) omitted here]
modifications: all N-glycans removed with PNGase F (the filing notes at paragraph 617 that PNGase F converts the glycosylated asparagine to aspartic acid)
B2: Deglycosylated IL-22 Fc fusion protein Clinical Batch 2 (Fc fusion)
chain: APISSHCRLDKSNFQQPYITNRTFMLAKEASLADNNTDVRLIGEKLFHGVSMSERCYLMKQVLNFTLEEVLFPQSDRFQPYMQEVVPFLARLSNRLSTCHIEGDDLHIQRNVQKLKDTVKKLGESGEIKAIGELDLLFMSLRNACIRV[human IgG4 Fc with S228P N297G (EU numbers) omitted here]
modifications: all N-glycans removed with PNGase F (glycosylated Asn becomes Asp)
notes: also called deglycosylated Clinical Batch 2
B3: Deglycosylated IL-22 Fc fusion protein Clinical Batch 4 (Fc fusion)
chain: APISSHCRLDKSNFQQPYITNRTFMLAKEASLADNNTDVRLIGEKLFHGVSMSERCYLMKQVLNFTLEEVLFPQSDRFQPYMQEVVPFLARLSNRLSTCHIEGDDLHIQRNVQKLKDTVKKLGESGEIKAIGELDLLFMSLRNACIRV[human IgG4 Fc with S228P N297G (EU numbers) omitted here]
modifications: all N-glycans removed with PNGase F (glycosylated Asn becomes Asp)
notes: also called deglycosylated Clinical Batch 4
B4: Deglycosylated IL-22 Fc fusion protein Clinical Batch 5 (Fc fusion)
chain: APISSHCRLDKSNFQQPYITNRTFMLAKEASLADNNTDVRLIGEKLFHGVSMSERCYLMKQVLNFTLEEVLFPQSDRFQPYMQEVVPFLARLSNRLSTCHIEGDDLHIQRNVQKLKDTVKKLGESGEIKAIGELDLLFMSLRNACIRV[human IgG4 Fc with S228P N297G (EU numbers) omitted here]
modifications: all N-glycans removed with PNGase F (glycosylated Asn becomes Asp)
notes: also called deglycosylated Clinical Batch 5
B5: IL-22 Fc fusion protein Clinical Batch 1 (Fc fusion)
chain: APISSHCRLDKSNFQQPYITNRTFMLAKEASLADNNTDVRLIGEKLFHGVSMSERCYLMKQVLNFTLEEVLFPQSDRFQPYMQEVVPFLARLSNRLSTCHIEGDDLHIQRNVQKLKDTVKKLGESGEIKAIGELDLLFMSLRNACIRV[human IgG4 Fc with S228P N297G (EU numbers) omitted here]
modifications: N-glycans at Asn21, Asn35, Asn64 and Asn143 of the IL-22 part; 8.7 mol NANA per mol fusion protein (Table 14)
notes: differs in glycans
B6: IL-22 Fc fusion protein Clinical Batch 2 (Fc fusion)
chain: APISSHCRLDKSNFQQPYITNRTFMLAKEASLADNNTDVRLIGEKLFHGVSMSERCYLMKQVLNFTLEEVLFPQSDRFQPYMQEVVPFLARLSNRLSTCHIEGDDLHIQRNVQKLKDTVKKLGESGEIKAIGELDLLFMSLRNACIRV[human IgG4 Fc with S228P N297G (EU numbers) omitted here]
modifications: N-glycans at Asn21, Asn35, Asn64 and Asn143 of the IL-22 part; 9.0 mol NANA per mol fusion protein (Table 14)
notes: Same polypeptide as m1; differs in glycans
B7: IL-22 Fc fusion protein Clinical Batch 3 (Fc fusion)
chain: APISSHCRLDKSNFQQPYITNRTFMLAKEASLADNNTDVRLIGEKLFHGVSMSERCYLMKQVLNFTLEEVLFPQSDRFQPYMQEVVPFLARLSNRLSTCHIEGDDLHIQRNVQKLKDTVKKLGESGEIKAIGELDLLFMSLRNACIRV[human IgG4 Fc with S228P N297G (EU numbers) omitted here]
modifications: N-glycans at Asn21, Asn35, Asn64 and Asn143 of the IL-22 part; 9.3 mol NANA per mol fusion protein (Table 14)
notes: as for B6

What was measured:
[1] = target: T1, IL-22 RA1 ECD; assay: potency binding assay (OD against concentration) on plate-coated IL-22 RA1 ECD after deglycosylation with PNGase F; upper panel, legend box
Protocol: (§1) The IL-22 Fc fusion protein potency assay measures the ability of IL-22 Fc fusion protein to bind to the IL-22 RA1 ECD. In the assay, varying concentrations of IL-22 Fc fusion protein Reference Standard Batch, control, and samples are added to a 96-well plate coated with IL-22 RA1 ECD. Bound IL-22 Fc fusion protein is detected with goat anti-human IgG-horseradish peroxidase (HRP) antibody and a tetramethylbenzidine substrate solution. The results, expressed in optical density (OD) units, are plotted against IL-22 Fc fusion protein concentrations, and a parallel curve program is used to calculate the measured potency of IL-22 Fc fusion protein sample(s) relative to the Reference Standard Batch.
(§2) To investigate the role of the underlying glycan structure on binding activity, the same Clinical Batches as above were treated with PNGase F enzyme to remove all N-glycans and analyzed in the potency assay. The potency of the process control sample, prepared from the Reference Standard Batch through the same treatment as the samples excepting PNGase F addition, was different than the potency of the Reference Standard Batch. In addition, differences in molecular size heterogeneity for the process control compared to the Reference Standard Batch were observed. The process control contained more high molecular weight (HMW) forms and less low molecular weight (LMW) forms than the Reference Standard Batch, as measured by size-exclusion ultra-high-performance liquid chromatography (SE-UHPLC).

[2] = target: T1, IL-22 RA1 ECD; assay: potency binding assay (OD against concentration) on plate-coated IL-22 RA1 ECD after deglycosylation with PNGase F; lower panel, legend box
Protocol: as §1
as §2, with “In addition, differences in molecular size heterogeneity for the process control compared to the Reference Standard Batch were observed.” left out

[3] = target: T1, IL-22 RA1 ECD; assay: plate binding assay: IL-22 RA1 ECD coated, bound IL-22 Fc detected with anti-human IgG-HRP; potency relative to Reference Standard Batch by parallel curve analysis
Protocol: as §1

| Binder | EC50 [1] [µg/mL] | % Relative Potency [3] [%] | further results |
| --- | --- | --- | --- |
| B1 | 0.047 |  |  |
| B2 | 0.046 |  |  |
| B3 | 0.051 |  |  |
| B4 |  |  | EC50 [2]: 0.044 µg/mL |
| B5 |  | 64 |  |
| B6 |  | 70 |  |
| B7 |  | 71 |  |
